Test results taken from paper PMC12136788.
The other results are listed elsewhere or left out.

T1: UNK ZnF1-6 (called full-length) (human, UniProt Q9C0B0 30-357)
T1 sequence: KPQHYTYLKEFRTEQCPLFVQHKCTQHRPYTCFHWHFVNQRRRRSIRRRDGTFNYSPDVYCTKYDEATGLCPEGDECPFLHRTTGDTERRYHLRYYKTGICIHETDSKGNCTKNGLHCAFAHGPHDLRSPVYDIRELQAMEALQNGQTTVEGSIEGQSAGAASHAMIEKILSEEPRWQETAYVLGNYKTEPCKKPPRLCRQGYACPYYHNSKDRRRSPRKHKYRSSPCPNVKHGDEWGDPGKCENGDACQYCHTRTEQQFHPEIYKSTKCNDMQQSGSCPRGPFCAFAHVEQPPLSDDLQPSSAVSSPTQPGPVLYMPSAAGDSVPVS

B1: chr15:59081107:59081211:+|CDS|ENSG00000157450|unk|FALSE|unique (ssRNA)
RNA: GGGAGUUCUACAGUCCGACGAUCUUCUCAAAUAUCUUCUCAUGCAACAUCUCAUCCUGUGGCACCCCCACCACCAACUCACUUAGCCAGUACAGCUGCACCAAUCCCUCAGCAUCUUCCUCCUACACACCAGCCAAUUUCGCACAACAGAGGAUUGAGCAUCA
B2: chr9:26904889:26904990:-|3pUTR|ENSG00000137055|msi1|total|mutant (ssRNA)
RNA: GGGAGUUCUACAGUCCGACGAUCAUAAUUUCUUGAUUUGUCAUUUAUAAAUCCUAAAGUAUAUUUGUUUAAUGGCCUAUUUUCCGAUGAAGAAAAAGCCAGUUGGUAAGCUGUGUCCGUCAUGUAUCAGUUCAGACAGACGAGCAACAGAGGAUUGAGCAUCA
B3: chr8:6521177:6521410:-|CDS|ENSG00000091879|control|control|control (ssRNA)
RNA: GGGAGUUCUACAGUCCGACGAUCUCAGCUACAGGUGUUAGUAUCCAAGCAAAAUUCCAUCAUUGAAGAACUAGAAAAAAAAAUAGUGACUGCCACGGUGAAUAAUUCAGUUCUUCAGAAGCAGCAACAUGAUCUCAUGGAGACCAACAGAGGAUUGAGCAUCA
B4: chr12:88196262:88196297:+|3pUTR|ENSG00000139324|msi1_unk|total|mutant (ssRNA)
RNA: GGGAGUUCUACAGUCCGACGAUCUGUAUACUUGUUUUUAACUUUAAAUGUAAUUUUUAAUCAGGUAAAGUUUGACACAUGUACCGCUACAUACACACAUUUUUAAUGGUGCUCAUAUAUACUGUAUUUUUUGUUGUUCCGUUUCAACAGAGGAUUGAGCAUCA
B5: chr14:90848141:90848242:-|3pUTR|ENSG00000100784|unk|total|mutant (ssRNA)
RNA: GGGAGUUCUACAGUCCGACGAUCCGAUAACUGGUACUGCCUUUGAUUAAAGGUGAGCUAUAUGGAGUUAAGCAUUUUUAUACCCGUAACUAUUUAUUGAGAAUUUUCAGAAUUCUACCGCUACUUGUCUUUAACAGUUAUAAGCAACAGAGGAUUGAGCAUCA
B6: chr4:159352722:159352837:+|CDS|ENSG00000109756|unk|total|mutant (ssRNA)
RNA: GGGAGUUCUACAGUCCGACGAUCACUGUGGAUAAUUUUUCAGAUUCUGGUCACAGUGAAAUUUCUUCACGAUCCAGUAUUGUCCGCAAUUCGUCUUUUGACUCAGUGCCAGUCUCACUGCACGAUGAGAGGCGCCAGAGGCAUCAACAGAGGAUUGAGCAUCA
B7: chr2:201645282:201645383:-|CDS|ENSG00000082126|unk|total|mutant (ssRNA)
RNA: GGGAGUUCUACAGUCCGACGAUCUACUAUCCAUAUUUUUCUAUUUCUCCUAAAGGAUGAAGACCUACAAGAGAUGGAAAAUUCCGCCCAAAGAAUGGAAACUCAGUUUGGCCAAUUUUUUGAUCAUGUGAUUGUGAAUGACAGCAACAGAGGAUUGAGCAUCA
B8: chrX:152971868:152971969:+|3pUTR|ENSG00000147394|unk|total|mutant (ssRNA)
RNA: GGGAGUUCUACAGUCCGACGAUCUUCCCUUACAGGUAUGUUGGCAUGUGUUGGAAAAUUUACACAAUCCGGUUUAAAUUCAGCCGGAUGUGAUUUCCGGAUGCUACUGAUCAAAGUGAUAUCUGUGUCUGUUGGAAUCUUGAUCAACAGAGGAUUGAGCAUCA
B9: chr10:102404582:102404727:-|CDS|ENSG00000059915|control|control|control (ssRNA)
RNA: GGGAGUUCUACAGUCCGACGAUCAUCACUCGCAUCAAUGUAGUAGCCGCUAUGUUCUCUGCGCCCCCCUUCCCAGCUGCUGUUAGCUCCCAAAAGAAGUUCAGCCGCCCUCUCCUGCCCAGCGCUGCCACCCGCCUCUCCCAGCAACAGAGGAUUGAGCAUCA
B10: chr11:65967286:65967395:+|CDS|ENSG00000175467|unk|total|mutant (ssRNA)
RNA: GGGAGUUCUACAGUCCGACGAUCGACCUUUAAAAAGACCAAGCGGAGGGUGAAGAAAAUCCGCAAGAAGGAGAAGGAGGCCGCCGUGCGGGCAGAUGACUUGCUGCCUCUCGGGGACCAGACUCAGGAUGGGGACUUUGGUUCCAACAGAGGAUUGAGCAUCA
B11: ENSG00000109133:stop:overlap|stop_codon|ENSG00000109133|stop_codon|NA|stop_codon (ssRNA)
RNA: GGGAGUUCUACAGUCCGACGAUCUGAGAAGACUUUGUCUCCAGAGCAUUGCCUUUAUAAGCAGAUUGGCACCAACAGUUCCAUAGUUUAACAUCUAGUUAAGCUACAAAUAUAGUAUAAGCAUUAUUAGCAGCUGGUACUUCUCAACAGAGGAUUGAGCAUCA
B12: chr19:19296988:19297344:-|CDS|ENSG00000105705|control|control|control (ssRNA)
RNA: GGGAGUUCUACAGUCCGACGAUCCUCCGCAGCCACCGUGAAGAGGAAGCGGAAGAGCCGGUGGGGGCCUGAAGAGGAUAAGGUAGAGCUCCCACCUGCUGAACUGGUGCAGAGGGACGUGGAUGCCUCUCCCUCGCCUCUGUCCAACAGAGGAUUGAGCAUCA
B13: chr1:25831912:25832087:-|three_prime_utr|ENSG00000127423|control|control|control (ssRNA)
RNA: GGGAGUUCUACAGUCCGACGAUCGACUGAGUUUGCAGAGCUGAGGGUUGUCAAUUUCCUUUUCUACUGAUAUCUUCUUCCUUUAGAGCAAACUUCCUCCUUAGGACCUCAGAGAUAAGCACAGCAGGGUCUUCCUCCUUCAAUCAACAGAGGAUUGAGCAUCA
B14: chr17:39471515:39471616:+|CDS|ENSG00000167258|unk|total|mutant (ssRNA)
RNA: GGGAGUUCUACAGUCCGACGAUCUUGCCUCCAAUACCAGCUCUUCCACAGCAACCACCUCUGCCUCCUUCUCAGCCAGCAUUCCGUCAGGUUCCUGCUUCCAGUACUUCAACUUUGCCCCCUUCUACUCACUCAAAGACAUCUCAACAGAGGAUUGAGCAUCA

Target: T1, UNK ZnF1-6 (called full-length)
Test: nsRBNS (natural sequence RNA bind-n-seq); RBNS binding buffer (assumed for nsRBNS): 25 mM Tris pH 7.5, 150 mM KCl, 3 mM MgCl2, 0.01% Triton X-100, 500 ug/ml BSA, 20 U/ml SUPERase-In, 4 C; UNK is unkempt and MSI1 is Musashi-1; names of the RNAs are library labels; protein concentration not given here; high values mean tight binding

| Binder | binding signal [enrichment R] |
| --- | --- |
| B1 | 1.14 |
| B2 | 0.378 |
| B3 | 0.481 |
| B4 | 0.573 |
| B5 | 0.647 |
| B6 | 0.333 |
| B7 | 0.521 |
| B8 | 0.228 |
| B9 | 1.22 |
| B10 | 1.13 |
| B11 | 0.93 |
| B12 | 0.595 |
| B13 | 0.642 |
| B14 | 1.11 |
